From patent publication US20220267463A1, “ANTIBODIES WHICH BIND TO CANCER CELLS AND TARGET RADIONUCLIDES TO SAID CELLS” (Hoffmann-La Roche Inc., priority 2019, published 2022)

B1: P1AF0712: CEA specific SPLIT antibody, DOTA binder half; SEQ ID NO 97, 98, 103 (protein)
chain 1: QVQLVQSGAEVKKPGASVKVSCKASGYTFTEFGMNWVRQAPGQGLEWMGWINTKTGEATYVEEFKGRVTFTTDTSTSTAYMELRSLRSDDTAVYYCARWDFAYYVEAMDYWGQGTTVTVSSASTKGPSVFPLAPSSKSTSGGTAALGCLVKDYFPEPVTVSWNSGALTSGVHTFPAVLQSSGLYSLSSVVTVPSSSLGTQTYICNVNHKPSNTKVDKKV[… human IgG1 Fc with changes …]
chain 2: QVQLVQSGAEVKKPGASVKVSCKASGYTFTEFGMNWVRQAPGQGLEWMGWINTKTGEATYVEEFKGRVTFTTDTSTSTAYMELRSLRSDDTAVYYCARWDFAYYVEAMDYWGQGTTVTVSSASTKGPSVFPLAPSSKSTSGGTAALGCLVKDYFPEPVTVSWNSGALTSGVHTFPAVLQSSGLYSLSSVVTVPSSSLGTQTYICNVNHKPSNTKVDKKVEPKSCDKTHTCPPCPAPEAAGGPSVFLFPPKPKDTLMISRTPEVTCVVVDVSHEDPEVKFNWYVDGVEVHNAKTKPREEQYNSTYRVVSVLTVLHQDWLNGKEYKCKVSNKALGAPIEKTISKAKGQPREPQVCTLPPSRDELTKNQVSLSCAVKGFYPSDIAVEWESNGQPENNYKTTPPVLDSDGSFFLVSKLTVDKSRWQQGNVFSCSVMHEALHNHYTQKSLSLSPGGGGGSGGGGSGGGGSGGGGSQAVVIQESALTTPPGETVTLTCGSSTGAVTASNYANWVQEKPDHLFTGLIGGHNNRPPGVPARFSGSLIGDKAALTIAGTQTEDEAIYFCALWYSDHWVIGGGTKLTVL
chain 3: DIQMTQSPSSLSASVGDRVTITCKASAAVGTYVAWYQQKPGKAPKLLIYSASYRKRGVPSRFSGSGSGTDFTLTISSLQPEDFATYYCHQYYTYPLFTFGQGTKLEIKRTVAAPSVFIFPPSDEQLKSGTASVVCLLNNFYPREAKVQWKVDNALQSGNSQESVTEQDSKDSTYSLSSTLTLSKADYEKHKVYACEVTHQGLSSPVTKSFNRGEC
modifications: P1AF0712 HCknob <CEA> CH1A1A (D1AC4023); P1AF0712 HChole <CEA> CH1A1A DOTA-VL (D1AE4684); P1AF0712 and P1AF0713 light chain (D1AA3384)
B2: P1AF0713: CEA specific SPLIT antibody, DOTA binder half; SEQ ID NO 100, 101, 103 (protein)
chain 1: QVQLVQSGAEVKKPGASVKVSCKASGYTFTEFGMNWVRQAPGQGLEWMGWINTKTGEATYVEEFKGRVTFTTDTSTSTAYMELRSLRSDDTAVYYCARWDFAYYVEAMDYWGQGTTVTVSSASTKGPSVFPLAPSSKSTSGGTAALGCLVKDYFPEPVTVSWNSGALTSGVHTFPAVLQSSGLYSLSSVVTVPSSSLGTQTYICNVNHKPSNTKVDKKVEPKSCDKTHTCPPCPAPEAAGGPSVFLFPPKPKDTLMISRTPEVTCVVVDVSHEDPEVKFNWYVDGVEVHNAKTKPREEQYNSTYRVVSVLTVLHQDWLNGKEYKCKVSNKALGAPIEKTISKAKGQPREPQVCTLPPSRDELTKNQVSLSCAVKGFYPSDIAVEWESNGQPENNYKTTPPVLDSDGSFFLVSKLTVDKSRWQQGNVFSCSVMHEALHNHYTQKSLSLSPG
chain 2: QVQLVQSGAEVKKPGASVKVSCKASGYTFTEFGMNWVRQAPGQGLEWMGWINTKTGEATYVEEFKGRVTFTTDTSTSTAYMELRSLRSDDTAVYYCARWDFAYYVEAMDYWGQGTTVTVSSASTKGPSVFPLAPSSKSTSGGTAALGCLVKDYFPEPVTVSWNSGALTSGVHTFPAVLQSSGLYSLSSVVTVPSSSLGTQTYICNVNHKPSNTKVDKKV[… human IgG1 Fc with changes …]GGGGSGGGGSGGGGSGGGGSHVKLQESGPGLVQPSQSLSLTCTVSGFSLTDYGVHWVRQSPGKGLEWLGVIWSGGGTAYNTALISRLNIYRDNSKNQVFLEMNSLQAEDTAMYYCARRGSYPYNYFDAWGQGTTVTVSSAST
chain 3: B1 chain 3
modifications: P1AF0713 HCHole <CEA> CH1A1A (D1AC4022); P1AF0713 HCknob <CEA> CH1A1A DOTA-VH-AST (D1AE3670); P1AF0712 and P1AF0713 light chain (D1AA3384)

System: Pb-DOTA labeled with FITC
Test: FACS staining using DOTA-FITC on MKN-45 cells
Format: cell-based
Conditions: 10 μg/mL antibody, FIG. 24
Method: These examples investigate recruitment of Pb-DOTA to cells by split antibodies as described herein. P1AF0712 has a first heavy chain of SEQ ID NO:97, a second heavy chain of SEQ ID NO: 98 and a light chain of SEQ ID NO: 103. P1AF0713 has a first heavy chain of SEQ ID NO: 100, a second heavy chain of SEQ ID NO: 101 and a light chain of SEQ ID NO: 103. MKN-45 cells were detached from the culture bottle using Trypsin and were counted using a Casy cell counter. After pelleting at 4° C., 300 g the cells were resuspended in FACS Buffer (2.5% FCS in PBS), adjusted to 2.0E+06 cells/mL dispensed to 96-well PP V-bottom-Platte (25 μL/well=5.0E+04 Zellen/well).
The CEA specific SPLIT antibodies (P1AF0712 or P1AF0713 respectively) were adjusted to 40 μg/mL in FACS buffer, resulting in a final concentration of 10 μg/mL. Both antibodies were added to the cells either combined or separated and followed by buffer and incubated at 4° C. for 1 h. Subsequently, Pb-DOTA labeled with FITC was added to the cells in equimolar ratio to the antibodies and incubated for 1 h at 4° C. The cells were then washed twice in FACS buffer and resuspended in 70 μl/well FACS buffer for measurement using a FACS Canto (BD, Pharmingen). […]
EC50 was determined for the SPLIT antibodies using either secondary antibody based detection (488, top panel) or Pb-DOTA-FITC (DOTA-FITC, bottom panel)

| Molecule | fluorescence signal / recruitment of Pb-DOTA-FITC to cells |
| --- | --- |
| B1 | lack of Pb-DOTA binding capability |
| B2 | lack of Pb-DOTA binding capability |
